Cytotoxicity call and growth inhibition call data for nine molecules are collected here from the antibiotic and cytotoxicity screens of Wong et al. (2023).

In test [1] the test system is HSkMC (human skeletal muscle cells). The test can be described thus: cytotoxicity call (relative viability < 0.9). The following applies: 10 µM.
Test [2] relates to HepG2. Description: cytotoxicity call (relative viability < 0.9). The following applies: 10 µM.
Test [3] relates to S. aureus RN4220. The test can be described thus: growth inhibition call (relative growth <= 0.2). The following applies: 50 µM.

Some of the results follow.

In the case of `COc1ccc(NC(=O)N(C)C[C@@H]2OCCCC[C@@H](C)Oc3ccc(NC(=O)Nc4c(C)noc4C)cc3C(=O)N([C@H](C)CO)C[C@H]2C)cc1`, the cytotoxicity call in test [1] and in test [2] was “inactive” throughout. Also, the growth inhibition call in test [3] is “inactive”.

As for `CC(C)(C)C(=O)OCOP(=O)(OCOC(=O)C(C)(C)C)C(C)(Oc1ccc(O)cc1)P(=O)(OCOC(=O)C(C)(C)C)OCOC(=O)C(C)(C)C`, in test [1], the cytotoxicity call is “inactive”. For the same molecule, the cytotoxicity call in test [2] is “active”. Besides, the growth inhibition call in test [3] is “inactive”.

Consider `COc1ccc(S(=O)(=O)Nc2cccc3c2O[C@H](CN(C)Cc2ccncc2)[C@H](C)CN([C@@H](C)CO)C3=O)cc1`, for which the cytotoxicity call in test [1] and in test [2] was “inactive” in each case. Besides, the growth inhibition call in test [3] was “inactive”.

On to `CC1=NN(C)C(=O)CC1`, for which the cytotoxicity call in test [1] and in test [2] was “inactive” throughout. In test [3], the growth inhibition call is “inactive”.

Turning to `C[C@H]1CN([C@@H](C)CO)S(=O)(=O)c2ccc(C#CCN(C)C)cc2O[C@@H]1CN(C)C(=O)C1CCCCC1`, the cytotoxicity call in test [1] and in test [2] was “inactive” in each case. Also, the growth inhibition call in test [3] was “inactive”.

As to `C[C@H](CO)N1C[C@H](C)[C@H](CN(C)C(=O)Nc2ccccc2)OCCCC[C@H](C)Oc2ccc(NC(=O)Cc3ccccc3)cc2C1=O`, the cytotoxicity call in test [1] and in test [2] was “inactive” each time. In addition, the growth inhibition call in test [3] was “inactive”.

In the case of `C[C@H](CO)N1C[C@H](C)[C@@H](CN(C)S(=O)(=O)c2ccc(Cl)cc2)Oc2c(NS(=O)(=O)c3cn(C)cn3)cccc2C1=O`, the cytotoxicity call in test [1] and in test [2] was “inactive” throughout. The growth inhibition call in test [3] was “inactive”.

For `Cn1cnc(S(=O)(=O)N2C[C@@H](O)COC[C@H]3O[C@H](CC(=O)NC4Cc5ccccc5C4)CC[C@@H]32)c1`, the cytotoxicity call in test [1] and in test [2] was “inactive” each time. Also, in test [3], the growth inhibition call was “inactive”.

As for `C[C@H]1CN([C@@H](C)CO)C(=O)c2cc(NC(=O)Cc3cn(C)c4ccccc34)ccc2O[C@@H]1CN(C)Cc1ccc(Cl)c(Cl)c1`, the cytotoxicity call in test [1] is “active”. For the same molecule, the cytotoxicity call in test [2] is “inactive”. For the same molecule, the growth inhibition call in test [3] is “inactive”.
